From the supplement of paper PMC10126150 come the findings set out here.

Values marked as one replicate rest on one cluster of the flow cell; about a third of the high ones do not repeat.

The data set relates to ATP. In words: switch fluorescence ratio, 500 uM ATP over buffer (Cy3 cluster intensity, sum of 5 cycles each) (fold (ratio)); higher = stronger signal-on switching upon ATP binding; sequences stand for … in TCGTCGGCAGCGTCAGATGTGTATAAGAGACAGTTTTTTTTTTTTTTTTTTTTTTTTT…TC. Conditions: aptamer strand: ATP DNA aptamer (quencher-CACCTGGGGGAGTATTGCGGAGGAAGG + anchor), 100 nM annealed; ATP concentration: 500 uM; one replicate. An outline of the steps:
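For every switch-domain sequence, the fluorescence ratio is the mean of per-cluster values, each being summed target-cycle Cy3 intensity over summed buffer-cycle Cy3 intensity. Clusters outside 100-1000 RFU were excluded. On a modified Illumina MiSeq flow-cell, the Cy3-labelled switching-strand clusters were annealed to 100 nM quencher-labelled ATP aptamer, imaged in selection buffer and then after 15 min with 500 uM ATP at 22 °C. Five such cycles were run, with NaOH stripping and re-annealing between them.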
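Note: ATP exposure 15 min at 22 °C before imaging.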

As for ACAAGGTTAG, the switch fluorescence ratio is 0.924. For the sequence TGCTTGTTCC, the switch fluorescence ratio turned out to be 1.04. The value for CATTCGATTT was 1.02. CGCATTTTTG: the switch fluorescence ratio stood at 1.08. For the sequence TGGTAAACC, the switch fluorescence ratio amounted to 1.08. The value for ATACAAGATC was 1.02; that for ATAGGTATCG was 1.03; that for AAAAAGGAT was 0.986.

In the case of CAGCAAGTCG, the switch fluorescence ratio was found to be 1.21. The value for AGAAGCAG was 0.98; that for CGTCAGGCGT was 1.04; that for TTTCACCCGG was 1.17.

Regarding ATATGCGAGT, the switch fluorescence ratio stood at 1.02. Take TGCACCTTCC: the switch fluorescence ratio was determined as 1.44. The result for AGAAACGATT reads 1.05. The result for CTTGAGGCGA reads 0.967; that for GACCGGTTGG, 0.986. The value for GTCGACTGAG was 1.01; that for GGCGCGTGGA was 0.966; that for ATGTTTCAGC was 1.01. As for TTACTTGGTT, the switch fluorescence ratio was found to be 1.

On to TAGATAACG, for which the switch fluorescence ratio amounted to 0.99. The value for CGATGTGTTG was 0.959; that for GCTTTCCGGT was 1.01; that for AAAAGACGGA was 1.01. The value for TATGGCATTG was 1; that for AACCTCATAC was 1.62; that for TACGAGACTC was 1.12. The result for AGCTCATGGG reads 0.981; that for CGGCAACCTA, 1.12; that for GATCTACATC, 1.02. AGGGGCGCTG: the switch fluorescence ratio worked out at 0.935.

As for TCGTGCCAAG, the switch fluorescence ratio was found to be 1.02.

In the case of GAACATGTCT, the switch fluorescence ratio is 0.96.

Regarding AACGTAGGCC, the switch fluorescence ratio worked out at 1.02. The value for CGACTGATCT was 1.01; that for GTGGGTTAGC was 0.95; that for CGCCGGGATC was 1.2. As for GATATTTCGA, the switch fluorescence ratio was found to be 0.979. The value for CCCCTTTCAA was 1.05.

Turning to CGGTGTCATG, the switch fluorescence ratio amounted to 1.01. Regarding GTGACCTAAA, the switch fluorescence ratio stood at 1.01. The value for CTATAGTGTC was 1.03; that for ATCGGTCGTG was 0.962; that for TTTAAGCAGT was 1.28. The value for CTAATGTATA was 0.988; that for CAGTTATTTC was 0.994; that for ACTGGTGGGT was 1.05. The result for ACGGACGACA reads 1.33; that for GCAAAGATGG, 1.01. As for TGAAAATTGG, the switch fluorescence ratio was found to be 0.962. The result for GAGGAAACAC reads 1.03; that for AGATGACTGT, 1.06; that for TTGCTTTAAA, 0.951. The value for CGGCTTGTTT was 0.958; that for TCGGGCGGTA was 1.04; that for CGCCTACACG was 1.02. The value for CTGAGGCTGC was 1.63. As for CCCCGTTGCG, the switch fluorescence ratio stood at 1.07. For the sequence GCTCGGATAG, the switch fluorescence ratio is 1.05. For GTCTTAGGTA, the switch fluorescence ratio stood at 1.03. Turning to GCATTAGGC, the switch fluorescence ratio turned out to be 0.977. The result for ACTAAGCGCA reads 1.04; that for ATGAGCATAT, 1.17.

Consider ATGAGTGGG, for which the switch fluorescence ratio came out at 1.02. The result for ATCTTGGACA reads 1.01; that for GACAGACTCC, 1.46. The result for TAAGCAATAG reads 3.66; that for CAAATGTTC, 0.995. The result for GAAAATCACG reads 1.03; that for AAGCCAGGTT, 1.05; that for ACATTTAATG, 0.994. As to GAGTCACGCA, the switch fluorescence ratio came out at 1.35. Regarding GATAAATTGG, the switch fluorescence ratio was 1.06. Take ATGCGCGATT: the switch fluorescence ratio was found to be 1.06.

As to GCCCTATCAC, the switch fluorescence ratio was 1. The value for TGCAGTAGAA was 0.95; that for CCTTAATTAC was 2.06. The result for GGCGCAGGTG reads 2.97; that for CCTGCATCGG, 1.15; that for ATCTGGT, 1.

As to CTACACGCCC, the switch fluorescence ratio came to 1.1. The result for GACTTTATTC reads 1.01. The value for GTAACATCCA was 1.03. Consider CGTATAACAG, for which the switch fluorescence ratio is 0.994. Regarding TTACCTAATT, the switch fluorescence ratio is 1. The value for CTGGGTGAAA was 1.02; that for GCGGCAATGC was 3.31.

Regarding CGGCACGTCT, the switch fluorescence ratio turned out to be 1.02.

Take TTACCTGGTT: the switch fluorescence ratio came to 1.05. The result for TGCCGCAATT reads 5.39; that for ACGGGCACCG, 1.06; that for GATAGGTGGC, 0.953. The value for GCGTGCTCAC was 1.01; that for TCTTACTGTA was 1.07. The value for TCGTTCTACT was 0.992; that for GCGGTAGTAG was 0.989. In the case of TGCGCCGGCC, the switch fluorescence ratio came to 0.966. The result for ACTCTGAGAG reads 1.02; that for TGCCTGTAAC, 1.05; that for AGGCTGATGA, 0.979. The value for CAGCCATGAA was 1.03.

In the case of GACACTCAAG, the switch fluorescence ratio came to 1.02. As to ATGAATGCCA, the switch fluorescence ratio was determined as 0.963. The value for AACCCGCGCG was 1.05. The result for CGGGCCGTGA reads 0.971.

With GGACTGAGAG, the switch fluorescence ratio came out at 0.988. ATACGAGGGG: the switch fluorescence ratio came to 0.979.

As to TATGAGCGGG, the switch fluorescence ratio is 0.984. The result for TTACAAAGTG reads 0.98; that for GCTGGTAACG, 0.974. The result for TAAACGTAGC reads 1.01; that for GTATTCCATT, 0.994; that for GCTACCATG, 0.994. The value for GGACCTTCGG was 1.07; that for GGCCCATGGG was 1.03.

As for GTAAAAAGAA, the switch fluorescence ratio was 0.97.

Consider GTTTTTGCGT, for which the switch fluorescence ratio stood at 0.961. Regarding CGGGCCGTGT, the switch fluorescence ratio is 0.983. The value for TCTTATATCA was 1.02.
